Experimental data reported in ChEMBL document CHEMBL4888484, “Replenishing the malaria drug discovery pipeline: Screening and hit evaluation of the MMV Hit Generation Library 1 (HGL1) against asexual blood stage Plasmodium falciparum ,using a nano luciferase reporter read-out” (2022).
About 540 (0.36%) of roughly 150,000 compounds showed an effect of 50% or more. The list shows a part of the results.

What follows are molecules tested on Plasmodium falciparum (assay: Primary screen in NF54 nanoGlo assay, in single point, at 2uM, 72h; a lower Z score goes with more inhibition). Details: timepoint 72 hour.
Type: functional, Erythrocyte

SMILES | % Inhibition [%] | Z score
Cc1nc(-c2nnc[nH]2)sc1C(=O)OCc1nc2ccccc2[nH]1 | 0 | -0.02
COc1ccc(-n2nc(C(=O)Nc3ccc(C)c(Cl)c3)cc2-c2cccnc2)cc1 | -5 | 0.92
COc1ccc2cc(S(=O)(=O)N3CCc4ccccc43)ccc2c1 | -17 | 2.23
CC1NC(=O)N(C2c3cccc(F)c3CCC2C)C1=O (stereo unspecified) | 0 | -0.01
Cc1ccc(CN2CCN(C[C@H](C)C(=O)NCc3ccc(F)cc3F)C(=O)C2=O)cc1 | 0 | -0.02
Cc1cccc(NC(=O)N[C@@H]2C=C[C@H](CO)C2)n1 | -17 | 1.46
CCn1ncc(NC(=O)[C@@H]2NCCOc3ccccc32)c1C | -6 | 1.19
COC(=O)C(C)(C)CNCc1cccc(F)c1F | -15 | 2.05
NC(=O)c1c(Cl)cccc1NC(=O)c1ncoc1-c1ccco1 | -3 | 0.61
COC1([C@H](C)NC(=O)c2c[nH]c(C(F)(F)F)c2)CCC1 | -16 | 1.87
COc1cccc2c(C(=O)Nc3scnc3C)n[nH]c12 | -12 | 1.48
CN1CCCN(C(=O)C(=O)Nc2ccc(F)cc2Cl)CC1 | -11 | 1.44
COc1cccc(-c2nc(OC(C)C)nn2-c2cccc(NC(=O)c3ccccc3F)c2)c1 | 3 | -0.54
O=C(NC1CC1)[C@H]1CCCN(C2CCN(Cc3c(F)cccc3F)CC2)C1 | -7 | 1.24
COc1cccc(NC(=O)c2[nH]c3cc(C)sc3c2CN2CCOCC2)c1 | -1 | 0.08
Cc1nn(C)c(C)c1CNC(=O)Cn1ccc2c(C)cccc21 | -2 | 0.24
Cc1nn2cnnc2c(C)c1CCC(=O)NCC1CC2C=CC1C2 (stereo unspecified) | -18 | 2.23
Cc1cccc(NC(=O)N2C3CCC2CC(N2C(=O)CCC2=O)C3)c1 (stereo unspecified) | -5 | 0.84
CCn1c(CN2CCC[C@H](C(=O)c3cccc(OC)c3)C2)nc2ccccc21 | -5 | 0.65
COCCN1CCCC1CNC(=O)NC1C=CCCC1 (stereo unspecified) | -5 | 0.64
CCN(CC)C[C@H](O)COc1ccc(CN(C)CC(=O)OC)cc1OC | -22 | 1.96
Cc1ccccc1-n1c(=O)c2sccc2n(CC(=O)NCc2ccc(Cl)cc2)c1=O | 4 | -0.63
Cc1ccc(NC(=O)c2cn(C3CCCCC3)c(=O)c3nnsc23)cc1 | 0 | 0.05
